# Laboratory results reported in the supplement of paper PMC8728848.
# This is one part of the list.
# Legend:
# Experiment in all cases: glycan array binding signal (z-score within array); higher = stronger binding
# Conditions in all cases: glycan notation: IUPAC condensed, linker removed
# [1] = molecular target: Gal(b1-4)GlcNAc(b1-3)Gal(b1-4)GlcNAc(b1-3)Gal(b1-4)GlcNAc(b1-2)Man(a1-3)[Gal(b1-4)GlcNAc(b1-3)Gal(b1-4)GlcNAc(b1-3)Gal(b1-4)GlcNAc(b1-2)Man(a1-6)]Man(b1-4)GlcNAc(b1-4)GlcNAc
# Method in brief: (§1)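 The binding signal is a Z-score computed within each array and averaged over linkers. Arrays of the same protein sequence at different concentrations or buffers were also averaged together. Data originate from 3228 arrays in the Consortium for Functional Glycomics database, kept only where the protein sequence was available.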
# [2] = molecular target: Gal(b1-4)GlcNAc(b1-3)Gal(b1-4)GlcNAc(b1-3)Gal(b1-4)GlcNAc(b1-2)Man(a1-3)[Gal(b1-4)GlcNAc(b1-3)Gal(b1-4)GlcNAc(b1-3)Gal(b1-4)GlcNAc(b1-2)Man(a1-6)]Man(b1-4)GlcNAc(b1-4)[Fuc(a1-6)]GlcNAc
# Method in brief: as §1
# [3] = molecular target: Gal(b1-4)GlcNAc(b1-3)Gal(b1-4)GlcNAc(b1-3)Gal(b1-4)GlcNAc(b1-2)[Gal(b1-4)GlcNAc(b1-3)Gal(b1-4)GlcNAc(b1-3)Gal(b1-4)GlcNAc(b1-6)]Man(a1-6)[Gal(b1-4)GlcNAc(b1-3)Gal(b1-4)GlcNAc(b1-3)Gal(b1-4)GlcNAc(b1-2)Man(a1-3)]Man(b1-4)GlcNAc(b1-4)[Fuc(a1-6)]GlcNAc
# Method in brief: as §1
# [4] = molecular target: Gal(b1-4)GlcNAc(b1-3)Gal(b1-4)GlcNAc(b1-3)Gal(b1-4)GlcNAc(b1-3)Gal(b1-4)GlcNAc(b1-2)Man(a1-3)[Gal(b1-4)GlcNAc(b1-3)Gal(b1-4)GlcNAc(b1-3)Gal(b1-4)GlcNAc(b1-3)Gal(b1-4)GlcNAc(b1-2)Man(a1-6)]Man(b1-4)GlcNAc(b1-4)GlcNAc
# Method in brief: as §1
# [5] = molecular target: Gal(b1-4)GlcNAc(b1-3)Gal(b1-4)GlcNAc(b1-3)Gal(b1-4)GlcNAc(b1-3)Gal(b1-4)GlcNAc(b1-2)Man(a1-3)[Gal(b1-4)GlcNAc(b1-3)Gal(b1-4)GlcNAc(b1-3)Gal(b1-4)GlcNAc(b1-3)Gal(b1-4)GlcNAc(b1-2)Man(a1-6)]Man(b1-4)GlcNAc(b1-4)[Fuc(a1-6)]GlcNAc
# Method in brief: as §1
# [6] = molecular target: Gal(b1-4)GlcNAc(b1-3)Gal(b1-4)GlcNAc(b1-3)Gal(b1-4)GlcNAc(b1-3)Gal(b1-4)GlcNAc(b1-2)[Gal(b1-4)GlcNAc(b1-3)Gal(b1-4)GlcNAc(b1-3)Gal(b1-4)GlcNAc(b1-3)Gal(b1-4)GlcNAc(b1-6)]Man(a1-6)[Gal(b1-4)GlcNAc(b1-3)Gal(b1-4)GlcNAc(b1-3)Gal(b1-4)GlcNAc(b1-3)Gal(b1-4)GlcNAc(b1-2)Man(a1-3)]Man(b1-4)GlcNAc(b1-4)[Fuc(a1-6)]GlcNAc
# Method in brief: as §1
# [7] = molecular target: Gal(b1-4)GlcNAc(b1-3)Gal(b1-4)GlcNAc(b1-3)Gal(b1-4)GlcNAc(b1-3)Gal(b1-4)GlcNAc(b1-3)Gal(b1-4)GlcNAc(b1-2)Man(a1-3)[Gal(b1-4)GlcNAc(b1-3)Gal(b1-4)GlcNAc(b1-3)Gal(b1-4)GlcNAc(b1-3)Gal(b1-4)GlcNAc(b1-3)Gal(b1-4)GlcNAc(b1-2)Man(a1-6)]Man(b1-4)GlcNAc(b1-4)GlcNAc
# Method in brief: as §1
# [8] = molecular target: Gal(b1-4)GlcNAc(b1-3)Gal(b1-4)GlcNAc(b1-3)Gal(b1-4)GlcNAc(b1-3)Gal(b1-4)GlcNAc(b1-3)Gal(b1-4)GlcNAc(b1-2)Man(a1-3)[Gal(b1-4)GlcNAc(b1-3)Gal(b1-4)GlcNAc(b1-3)Gal(b1-4)GlcNAc(b1-3)Gal(b1-4)GlcNAc(b1-3)Gal(b1-4)GlcNAc(b1-2)Man(a1-6)]Man(b1-4)GlcNAc(b1-4)[Fuc(a1-6)]GlcNAc
# Method in brief: as §1
# [9] = molecular target: Gal(b1-4)GlcNAc(b1-3)Gal(b1-4)GlcNAc(b1-3)Gal(b1-4)GlcNAc(b1-3)Gal(b1-4)GlcNAc(b1-3)Gal(b1-4)GlcNAc(b1-2)[Gal(b1-4)GlcNAc(b1-3)Gal(b1-4)GlcNAc(b1-3)Gal(b1-4)GlcNAc(b1-3)Gal(b1-4)GlcNAc(b1-3)Gal(b1-4)GlcNAc(b1-6)]Man(a1-6)[Gal(b1-4)GlcNAc(b1-3)Gal(b1-4)GlcNAc(b1-3)Gal(b1-4)GlcNAc(b1-3)Gal(b1-4)GlcNAc(b1-3)Gal(b1-4)GlcNAc(b1-2)Man(a1-3)]Man(b1-4)GlcNAc(b1-4)[Fuc(a1-6)]GlcNAc
# Method in brief: as §1
# [10] = molecular target: Gal(b1-4)GlcNAc(b1-3)Gal(b1-4)GlcNAc(b1-3)Gal(b1-4)GlcNAc(b1-3)Gal(b1-4)GlcNAc(b1-3)Gal(b1-4)GlcNAc(b1-3)Gal(b1-4)GlcNAc(b1-2)Man(a1-3)[Gal(b1-4)GlcNAc(b1-3)Gal(b1-4)GlcNAc(b1-3)Gal(b1-4)GlcNAc(b1-3)Gal(b1-4)GlcNAc(b1-3)Gal(b1-4)GlcNAc(b1-3)Gal(b1-4)GlcNAc(b1-2)Man(a1-6)]Man(b1-4)GlcNAc(b1-4)GlcNAc
# Method in brief: as §1
# [11] = molecular target: Gal(b1-4)GlcNAc(b1-3)Gal(b1-4)GlcNAc(b1-3)GalNAc
# Method in brief: as §1
# [12] = molecular target: Gal(b1-4)GlcNAc(b1-3)Gal(b1-4)GlcNAc(b1-3)[Gal(b1-4)GlcNAc(b1-3)Gal(b1-4)GlcNAc(b1-6)]GalNAc
# Method in brief: as §1
# [13] = molecular target: Gal(b1-4)GlcNAc(b1-3)Gal(b1-4)GlcNAc(b1-6)[Gal(b1-3)]GalNAc
# Method in brief: as §1
# [14] = molecular target: Gal(b1-4)GlcNAc(b1-3)Gal(b1-4)[Fuc(a1-3)GlcNAc(b1-6)]Gal(b1-4)Glc
# Method in brief: as §1
# [15] = molecular target: Gal(b1-4)GlcNAc(b1-3)Gal(b1-4)[Fuc(a1-3)]GlcNAc(b1-3)Gal(b1-4)[Fuc(a1-3)]GlcNAc
# Method in brief: as §1
# [16] = molecular target: Gal(b1-4)GlcNAc(b1-3)GalNAc
# Method in brief: as §1
# [17] = molecular target: Gal(b1-4)GlcNAc(b1-3)[Fuc(a1-3)GlcNAc(b1-6)]Gal(b1-4)Glc
# Method in brief: as §1
# [18] = molecular target: Gal(b1-4)GlcNAc(b1-3)[Gal(b1-4)GlcNAc(b1-6)]Gal(b1-4)GlcNAc
# Method in brief: as §1
# [19] = molecular target: Gal(b1-4)GlcNAc(b1-3)[GlcNAc(b1-6)]Gal(b1-4)GlcNAc
# Method in brief: as §1
binder,measurement,setting,value
"LSECtin (Homo sapiens), Q6UXB4 (protein) MDTTRYSKWGGSSEEVPGGPWGRWVHWSRRPLFLALAVLVTTVLWAVILSILLSKASTERAALLDGHDLLRTNASKQTAALGALKEEVGDCHSCCSGTQAQLQTTRAELGEAQAKLMEQESALRELRERVTQGLAEAGRGREDVRTELFRALEAVRLQNNSCEPCPTSWLSFEGSCYFFSVPKTTWAAAQDHCADASAHLVIVGGLDEQGFLTRNTRGRGYWLGLRAVRHLGKVQGYQWVDGVSLSFSHWNQGEPNDAWGRENCVMMLHTGLWNDAPCDSEKDGWICEKRHNC",glycan array binding signal (z-score),[1],-0.123
same,glycan array binding signal (z-score),[2],-0.132
same,glycan array binding signal (z-score),[3],-0.131
same,glycan array binding signal (z-score),[4],-0.133
same,glycan array binding signal (z-score),[5],-0.123
same,glycan array binding signal (z-score),[6],-0.121
same,glycan array binding signal (z-score),[7],-0.138
same,glycan array binding signal (z-score),[8],-0.115
same,glycan array binding signal (z-score),[9],-0.124
same,glycan array binding signal (z-score),[10],-0.131
same,glycan array binding signal (z-score),[11],-0.131
same,glycan array binding signal (z-score),[12],-0.125
same,glycan array binding signal (z-score),[13],-0.118
same,glycan array binding signal (z-score),[14],-0.143
same,glycan array binding signal (z-score),[15],-0.184
same,glycan array binding signal (z-score),[16],-0.146
same,glycan array binding signal (z-score),[17],-0.124
same,glycan array binding signal (z-score),[18],-0.186
same,glycan array binding signal (z-score),[19],-0.249
